Values joined by “and” are separate entries in the source; they are usually repeats but may differ in a detail not shown here. Equal values may be shown once. Screen size: about 120,000 compounds; about 5,300 (4.4%) were called active. The inconclusive results got no clear call from the source; some entries with a clear call stand among them for comparison. The call rests on the fitted dose curve; in most records, active means well fitted inhibition curve with a large enough effect; inconclusive means small, poorly fitted or top-dose-only effect; inactive means no such curve, though single readings can be large or run the other way. Where the call is inconclusive, the potency comes from a doubtful curve fit.
assay: qHTS Primary assay for Inhibitors of Plasmodium falciparum Dd2 growth in vitro; further: nearly all actives have a fitted effect of over 65% in size;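 on activity, negative = inhibition: plate controls were DMSO vehicle for no effect and reference drug for full effect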; settings: P. falciparum Dd2 growth, SYBR Green, 72 h; activity, negative = inhibition: at 28.9 µM (top of the series) unless noted; series mostly up to 28.9 µM
Procedure, shortened: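 Readout: SYBR Green fluorescence, 485 nm excitation, 535 nm emission, after ~16 h lysis at 37C. Before that, Dd2-infected red cells (2.5% hematocrit) grew 72 h with compound, 29 uM top final concentration.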
Potency means the concentration at half of the fitted maximal effect; tags describe the fitted curve by direction and shape.

Row | SMILES | Potency | activity, negative = inhibition | outcome
1 | Cc1cc(OCC(=O)N2CCN(CCc3ccccn3)CC2)cc(C)c1Cl | inconclusive: 14.1 µM [inhibitor, single point] |  | 
2 | O=C(NCC1(COc2ccc(C(F)(F)F)cn2)C[C@@H](O)[C@@H](O)C1)c1cnccn1 (some centres undefined) | inconclusive: 12.6 µM [inhibitor, partial curve, poor fit] |  | 
3 | C=Cc1ccc(Cn2c(C(=O)O)c(CNCc3ccc(F)cc3)c3ccc(C)cc32)cc1 | inconclusive: 17.8 µM [inhibitor, single point] |  | 
4 | Cc1cc(C)c(NC(=O)CSc2ncc3c(n2)-c2cc(Cl)ccc2N(C)S3(=O)=O)c(C)c1 |  | inactive: 40.9% | 
5 | CN(Cc1ccc2nonc2c1)Cc1cc2n(n1)CCN(S(C)(=O)=O)C2 | inconclusive: 20 µM [inhibitor, single point] |  | 
6 | O=C(CCc1ccccc1)N1CCN(C(=O)c2nnn3c2COC(c2ccc(Cl)cc2)C3)CC1 (centres undefined) |  | inactive: -19.3% | 
7 | Cn1nccc1CN1CCCC2(CC(c3cccc(C(F)(F)F)c3)=NO2)C1 (centres undefined) | inconclusive: 10 µM [inhibitor, partial curve, poor fit] |  | 
8 | O=C1NC(=NC2CCCC2)C2(CCN(Cc3ccc(F)cc3)C2)N1c1cccnc1 (centres undefined) | inconclusive: 6.31 µM [inhibitor, partial curve, poor fit] |  | 
9 | COc1cccc(-c2noc(CC3CCN(C(=O)c4ccccc4)CC3)n2)c1 | inconclusive: 14.1 µM [inhibitor, single point] |  | 
10 | CC(C)CCN1CCc2nc(N3CCc4ccccc4C3)[nH]c(=O)c2CC1 | inconclusive: 0.631 µM [inhibitor, single point] |  | 
11 | CC(C)(C)c1ccc(/C=C/C(=O)Nc2ccc(S(N)(=O)=O)cc2)cc1 | inconclusive: 20 µM [inhibitor, single point] |  | 
12 | CN(Cc1ccc(C(F)(F)F)cc1)Cc1cccc(C(F)(F)F)c1 |  | inactive: 10.2% | 
13 | O=C1CS(=O)(=O)C2(C(=O)N(Cc3ccccc3Cl)c3ccccc32)N1c1ccc(F)cc1 (centres undefined) | active: 5.62 µM |  | 
14 | CCOc1cccc(NC(=O)C2CC(=O)N(CC)C(=Nc3ccc(F)cc3)S2)c1 (centres undefined) | inconclusive: 8.91 µM [inhibitor, partial curve] |  | 
15 | CCOc1ccc(CCNC(=O)c2cc3cccc4c3n2CCS4)cc1 | inconclusive: 17.8 µM [inhibitor, single point] |  | 
16 | O=C(CCc1cc(Cl)no1)N1CCc2nc3cc(-c4ccccc4)[nH]n3c(=O)c2C1 | inconclusive: 0.112 µM [inhibitor, full curve, poor fit] |  | 
17 | CNC(=O)C1(N2CCC[C@H]2C(=O)N(C)CCN(C)C)CCC1 |  | inactive: -1.58% [at 44.1 µM] | 
18 | COc1cc2c(C(=O)Nc3cc(OC)c(OC)c(OC)c3)cn(C)c(=O)c2cc1OC |  | inconclusive: -101% [inhibitor] [at 5.79 µM] | 
19 | COc1ccc(OC)c(CNC(=O)c2nnn3c2COC(c2ccc(F)cc2)C3)c1 (centres undefined) | inconclusive: 6.31 µM [inhibitor, partial curve, poor fit] |  | 
20 | Cc1ccc(-c2nc3cnccn3c2NCCC(=O)O)cc1 |  | inactive: 10.3% | 
21 | COc1ccc(-c2nc(C3CC3)nc3c2CCN(Cc2cccn2C)CC3)cc1 | inconclusive: 17.8 µM [inhibitor, single point] |  | 
22 | c1cc(-c2nc3ccncc3[nH]2)ccn1 | inconclusive: 5.01 µM [inhibitor, partial curve, poor fit] |  | 

Row | SMILES | Potency | activity, negative = inhibition | outcome
23 | CCOc1ccccc1C(=O)N1CCN(C2CCN(C)C2=O)CC1 (centres undefined) | inconclusive: 0.708 µM [inhibitor, partial curve] |  | 
24 | O=C(O)c1ccc(-c2nc3ccncc3[nH]2)cc1 | inconclusive: 1.58 µM [inhibitor, full curve] and active: 1.26 µM |  | 
25 | CCCc1noc(-c2cccn3c(CNC(=O)c4cc(F)ccc4Cl)nnc23)n1 | inconclusive: 1.58 µM [inhibitor, partial curve, poor fit] |  | 
26 | Cc1cccc(NC(=O)c2ccc(-c3ccccc3)s2)c1 | inconclusive: 11.2 µM [inhibitor, single point] |  | 
27 | CCc1ccc(NC(=O)c2cnn(-c3ccccc3)c2-n2cccc2)cc1 | inconclusive: 20 µM [inhibitor, single point] |  | 
28 | COCCNC(=O)[C@H]1C[C@H](Oc2ccccc2)CN1C(=O)Nc1ccc2c(c1)OCCO2 |  |  | inactive
29 | COCC1CN(C)CC12CCN(Cc1ccc(Cl)c(F)c1)CC2 (centres undefined) | inconclusive: 4.47 µM [inhibitor, partial curve, poor fit] |  | 
30 | CC1(C)[C@H](Cc2cc(CC3CCCCC3)on2)C[C@@H]1NC(=O)c1ccco1 | active: 5.01 µM |  | 
31 | CC[C@H]1CN2CC[C@H]1C[C@@H]2CNC(=O)c1ccc(C(F)(F)F)cc1 | inconclusive: 5.62 µM [inhibitor, single point] |  | 
32 | CCCNC(=O)N1CCC(c2noc(COc3ccc(C)cc3)n2)CC1 | active: 8.91 µM |  | 
33 | CC1CCN(C(=O)c2ccccc2OCC2CCCN(C3CCCC3)C2)CC1 (centres undefined) | inconclusive: 3.98 µM [inhibitor, full curve, poor fit] |  | 
34 | CC(C)c1noc(-c2cn(C3CCN(C(=O)Cc4ccc(Cl)cc4)C3)nn2)n1 (centres undefined) |  |  | inactive
35 | CSc1cccc(NC(=O)c2ccc3c(c2)N(C)C2CCCN2C3=O)c1 (centres undefined) |  |  | inactive
36 | O=C(N[C@H]1C[C@@H]2C(=O)N[C@H]3CCN(C(=O)C4CCCC4)[C@@H]3C(=O)N2C1)c1ccc(F)c(Cl)c1 | inconclusive: 20 µM [inhibitor, single point] |  | 
37 | O=C(c1ccccn1)N1CCC(n2c(=O)[nH]c3ccccc32)CC1 |  | inactive: 3.53% [at 44.1 µM] | 
38 | CN(C)C[C@@H]1CN(c2ccncn2)C[C@H]1NC(=O)c1ccc(Cl)s1 | inconclusive: 7.94 µM [inhibitor, single point] |  | 
39 | CCOC(=O)c1cc(S(=O)(=O)Nc2cc(OC)ccc2OC)[nH]n1 | inconclusive: 12.6 µM [inhibitor, single point] |  | 
40 | COCCn1c(CN(C)C(C)c2ccccn2)cnc1S(=O)(=O)CCC(C)C (centres undefined) |  | inactive: -0.261% | 
41 | COc1cccc(CNC(=O)c2cnc3sc(N4CCCC4)nn3c2=O)c1OC |  | inactive: 48.9% | 
42 | COCCOC1CCOC2(CCN(C(=O)c3sccc3C)CC2)C1 (centres undefined) | inconclusive: 11.2 µM [inhibitor, partial curve, poor fit] |  | 
43 | CC(C)c1noc(-c2cn(C3CCN(C(=O)c4cccc(Br)c4)C3)nn2)n1 (centres undefined) |  | inactive: -7.76% | 
44 | CC1=C[C@@H](CNC(=O)c2ccccn2)[C@H](C(C)C)C[C@H]1CC(=O)N1CCCC1 | inconclusive: 20 µM [inhibitor, partial curve, poor fit] |  | 

Row | SMILES | Potency | activity, negative = inhibition | outcome
45 | O=C(NCc1ccco1)C1COC2(CCCCC2)N1C(=O)c1cccc([N+](=O)[O-])c1 (centres undefined) |  |  | inactive
46 | COCCNC(=O)[C@@H]1Cc2cn(Cc3nccn3C)c3cccc(c23)[C@H](CC(C)C)N1 | inconclusive: 11.2 µM [inhibitor, single point] |  | 
47 | COc1ccc(-c2cc(-c3ccc(OC)nc3)cn3cncc23)cc1 | active: 2.51 µM |  | 
48 | COc1cccc(N2C(=O)NC(=NC3CCCC3)C23CCCN(Cc2ccc(F)cc2)C3)c1 (centres undefined) | inconclusive: 10 µM [inhibitor, single point] |  | 
49 | COc1ccc(NC(=O)c2sc3nc4c(cc3c2N)CN(Cc2ccccc2)CC4)c(OC)c1 | inconclusive: 17.8 µM [inhibitor, single point] |  | 
50 | Cc1ccc(C)c(CN2C(=O)c3ccccc3S(=O)(=O)c3ccc(C(=O)OCC4CCCO4)cc32)c1 (centres undefined) | inconclusive: 17.8 µM [inhibitor, single point] |  | 
51 | CCC(CC)c1cc([C@H]2CN3CC[C@H]2C[C@@H]3CNC(=O)C2CC2)nc(-c2ccncc2)n1 | inconclusive: 2 µM [inhibitor, partial curve, poor fit] |  | 
52 | CN(C)C[C@@H]1CN(c2ccccn2)C[C@H]1NC(=O)c1ccoc1 |  | inactive: -7.5% | 
53 | Cc1ccc([C@H]2C[C@@H](O)[C@@H](O)[C@@H]2NC(=O)C2CC2)cc1 |  | inactive: 20.8% [at 44.1 µM] | 
54 | CS(=O)(=O)N1CCC(OC2CCN(C(=O)Nc3ccc(Cl)cc3F)CC2)CC1 | inconclusive: 8.91 µM [inhibitor, single point] |  | 
55 | Fc1ccc2nc(CO[C@H]3CN(Cc4ccccn4)C[C@H]3F)[nH]c2c1 | inconclusive: 25.1 µM [inhibitor, single point] |  | 
56 | COc1ccc(-c2c(C#N)c(SCC(=O)Nc3ccccc3C)nc(C)c2C(=O)Nc2ccc(Cl)cc2)cc1 | inconclusive: 14.1 µM [inhibitor, single point] |  | 
57 | Cc1cc(O)c(C(c2cccc(F)c2)N2CCN(c3ccccc3)CC2)c(=O)n1Cc1ccco1 (centres undefined) |  | inactive: 59% | 
58 | Cc1ccc(C)c(NC(=O)CN2CCSc3ccc(S(=O)(=O)N4CCCC4)cc32)c1 | inconclusive: 14.1 µM [inhibitor, single point] |  | 
59 | Cc1cc(C(=O)N2CCCC(O)(CN3CCCC3)C2)ccc1Cl (centres undefined) | inconclusive: 10 µM [inhibitor, single point] |  | 
60 | COc1cccc(CN2CCc3c(cc(C(=O)Nc4ccc(F)cc4C)n3C)C2)c1 | inconclusive: 3.98 µM [inhibitor, single point] |  | 
61 | Cc1ccccc1-c1cnc2n[nH]c(-c3ccc4c(c3)OCO4)c2n1 | inconclusive: 5.62 µM [inhibitor, partial curve, poor fit] |  | 
62 | CCOc1ccccc1NC(=O)N1CCC(Oc2ccccc2-c2nc(C)no2)C1 (centres undefined) | inconclusive: 14.1 µM [inhibitor, single point] |  | 
63 | CC(=O)NCCC(=O)N1Cc2ccccc2CC2(CCCCN2CC2CCNC2)C1 (centres undefined) |  | inactive: 11.9% | 
64 | Cc1cnc(CC2CCN(C(=O)N(C)C)C2)n1Cc1ccccc1 (centres undefined) | inconclusive: 17.8 µM [inhibitor, single point] |  | 
